Consider 2 compounds from PMC11320581 (ACS Infectious Diseases, 2024).

“And” between values parts separate entries of the source, which are not always exact repeats. Equal entries are not always repeated.

As usually defined, the IC50 is the concentration that inhibits the measured activity by half. Read a low IC50 as greater potency. A word on the EC50: it is the concentration that produces a half-maximal response.

Test [1] concerns the target T1, N. gonorrhoeae gyrase (Neisseria gonorrhoeae, UniProt P22118+P48371). The test is described as follows: biochemical.
In test [2] the target is T1, N. gonorrhoeae gyrase. The test is described as follows: biochemical. The conditions noted are these: IC50, inhibition of gyrase-catalyzed DNA supercoiling.
The target of test [3] is N. gonorrhoeae gyrase GyrA^S91F (Neisseria gonorrhoeae, UniProt P22118+P48371, S91F). Nature of the test: biochemical.
Test [4] has as its target T2, N. gonorrhoeae gyrase GyrA^D95G (Neisseria gonorrhoeae, UniProt P22118+P48371, D95G).
T2 construct: made in house
Nature of the test: biochemical.

For test [5], the target named is N. gonorrhoeae gyrase GyrA^S91F/D95G (Neisseria gonorrhoeae, UniProt P22118+P48371, D95G/S91F). The test is described as follows: biochemical.
Test [6] deals with T1, N. gonorrhoeae gyrase.

In the case of `CC1CN2c3c(cc4c(OCC5CCC(=O)N5)noc4c3F)CC3(C(=O)NC(=O)NC3=O)C2C(C)O1` (stereo not drawn) [H3D-005722], on N. gonorrhoeae gyrase [1], the “DNA cleavage profile with gyrase compared with zoliflodacin” value is recorded as “very similar to that of zoliflodacin”.
As for `C[C@@H]1CN2c3c(cc4c(N5C(=O)OC[C@@H]5C)noc4c3F)CC3(C(=O)NC(=O)NC3=O)[C@H]2[C@H](C)O1` [zoliflodacin, Zoliflodacin], the IC50 on N. gonorrhoeae gyrase [2] is 1.54 µM and ~1.5 µM; in test [3], around 3 µM; in test [4] it was around 4.4 µM; in test [5], around 3.8 µM. For the same compound, the EC50 on N. gonorrhoeae gyrase [1] was around 16.2 µM. Moreover, the “double-stranded DNA cleavage” value on N. gonorrhoeae gyrase [1] came to 32.9%. Also, on N. gonorrhoeae gyrase [1], the “total (double-stranded + single-stranded) DNA cleavage” value is given as 41.1%. For the same compound, at N. gonorrhoeae gyrase [6], the “stability of gyrase-DNA-SPT complex relative to topoisomerase IV complex” value was “≈ 10 times”.
